Results published in PubChem BioAssay (Tox21).
Values joined by “and” are separate entries in the source; they are usually repeats but may differ in a detail not shown here. Equal values may be shown once. The inconclusive results got no clear call from the source; some entries with a clear call stand among them for comparison. A potency beside an inconclusive call is a rough fit, not a confirmed value. More than one record can exist for a structure, and the calls need not agree. Active and inactive are the calls of the source. Calls come from the whole dose curve; as a rule, active = well fitted cell-killing curve with a large enough effect in the repeat runs; inconclusive = weak or mixed curves; inactive = no such curve, though single readings can be large or run the other way.

Assay: qHTS assay for identifying genotoxic compounds that show differential cytotoxicity against isogenic chicken DT40 cell lines with known DNA damage response pathways - Rad54/Ku70 mutant cell line (AID 743015); note: nearly all actives have a fitted effect of over 60% in size
Details: DT40 Rad54/Ku70 mutant viability, CellTiter-Glo, 40 h; series mostly up to 66.8 µM
Description: National Center for Advancing Translational Sciences [NCATS]
NIH Chemical Genomics Center [NCGC]
U.S. Environmental Protection Agency [EPA]
National Institutes of Environmental Health Sciences [NIEHS]
National Toxicology Program [NTP]
U.S. Food and Drug Administration [FDA]
DNA repair pathways play a critical role in cellular homeostasis by repairing DNA damage induced by endogenous processes and xenobiotics. Isogenic chicken DT40 cell lines deficient in different DNA repair pathways can be used to identify genotoxic compounds and aid in characterizing the nature of the DNA damage induced. Two DNA repair-deficient cell lines with disrupted genes, Rad54/Ku70 or Rev3, were used to screen the Tox21 10K compound library. Possible genotoxicity was based on the presence of a significant increase in cytotoxicity in one or more of the DNA repair-deficient cell lines compared to that observed in the parental DNA repair-proficient cell line. CellTiter Glo viability assay (Promega, Madison, WI) was used to measure cell viability in these cells after compound treatment. This assay includes the data from the Rad54/Ku70 mutant cell line.
Tox21 Assay Protocol Summary:
300 DT40 mutant cells in 5 uL/well were dispensed into white, solid-bottom 1536-well plates using a Multidrop Combi (ThermoFisher Scientific, Waltham, MA) dispenser. After the assay plates were incubated at 37 C/5% CO2 for approximately 0.5 hour, 23 nL of compounds dissolved in DMSO, positive controls or DMSO only was transferred into the assay plate by a pintool work station (Kalypsys, San Diego, CA). The assay plates were incubated at 37 C/5% CO2 for 40 hours. After 5 uL per well of CellTiter-Glo reagent was added into each well of the assay plates, the plates were incubated for 30 min at room temperature and the luminescence intensity of the plates was measured using a ViewLux (PerkinElmer, Shelton, CT) plate reader.
Potency is the fitted concentration of half-maximal effect; tags give direction and shape of the fitted curve.

Structure (SMILES)	Potency
COc1cc(OC)c2ccc(=O)oc2c1	active: 68.6 µM
C[C@]12CC[C@@H]3c4ccc(O)cc4CC[C@H]3[C@@H]1CC[C@@H]2O	active: 26.6 µM and inconclusive: 68.5 µM [cytotoxic, single point] and active: 54.5 µM
Oc1c(Cl)cc(Cl)c(Cl)c1Cl	inconclusive: 75.3 µM [cytotoxic, single point] and inconclusive: 68.6 µM [cytotoxic, single point]
O=C(NC(Cc1cc(=O)[nH]c2ccccc12)C(=O)O)c1ccc(Cl)cc1 (stereo not given)	inactive
O=C(O)c1ccccc1	inactive and inconclusive: 27.3 µM [cytotoxic, full curve]
CCOc1ccccc1O[C@H](c1ccccc1)[C@H]1CNCCO1	active: 13.3 µM
O=c1[nH]cnc2c1ncn2[C@H]1CC[C@@H](CO)O1	inconclusive: 5.96 µM [rising, partial curve, poor fit]
O=C(Nc1ccccc1)Nc1ccccc1	inconclusive: 68.9 µM [cytotoxic, single point]
CCOC(=O)CS	inconclusive: 70.5 µM [cytotoxic, single point]
CCCc1c(OCCCOc2ccc(OCC(=O)O)cc2)ccc(C(C)=O)c1O	inconclusive: 68.6 µM [cytotoxic, single point]
CCCCCCC(C)(C)S	inactive
O=C(O)CCC(=O)OC[C@@H](NC(=O)C(Cl)Cl)[C@H](O)c1ccc([N+](=O)[O-])cc1	inactive
c1ccc(CCc2ccccc2)cc1	inactive
C=CCOCC(CO)(COCC=C)COCC=C	inactive
CCc1oc2ccccc2c1C(=O)c1cc(Br)c(O)c(Br)c1	inconclusive: 29.8 µM [cytotoxic, single point]
CCOc1cccc(-n2cc(C(=O)N3CCN(c4cc(C(=O)O)c5ccccc5c4)CC3)nc2-c2ccc(C)cc2)c1	inconclusive: 65.5 µM [cytotoxic, single point]
Oc1cccc(O)c1O	inconclusive: 33.5 µM [cytotoxic, single point] and inconclusive: 68 µM [cytotoxic, single point]
CC(C)Cc1ccc(CC(=O)O)cc1	inactive
CC1(C)O[C@@H]2C[C@H]3[C@@H]4C[C@H](F)C5=CC(=O)CC[C@]5(C)[C@H]4[C@@H](O)C[C@]3(C)[C@]2(C(=O)CO)O1	inconclusive: 14.3 µM [cytotoxic]
CCOC(=O)[C@H](CCc1ccccc1)N[C@@H](C)C(=O)N1CCC[C@H]1C(=O)O	inactive

Structure (SMILES)	Potency
Nc1cccc2c(N)cccc12	active: 41.6 µM
CCCCCCCCSCCO	inconclusive: 8.63 µM [cytotoxic, full curve]
O=S(=O)(O)c1ccccc1O	inactive
CCN1C(=O)c2ccccc2C1Nc1ccc(OCCN2CCCCC2)cc1 (stereo not given)	inconclusive: 33.5 µM [cytotoxic, single point]
O=C(OCC(O)CO)c1ccccc1Nc1ccnc2cc(Cl)ccc12 (stereo not given)	inconclusive: 12.7 µM [cytotoxic, single point]
C1OCOCO1	inactive
COc1cc(N)c(Cl)cc1C(=O)NC1CCN(Cc2ccccc2)CC1	inconclusive: 14.3 µM [cytotoxic, partial curve, poor fit]
CCOC(=O)COc1cc(-n2ncc(C(F)(F)F)c(C)c2=O)c(F)cc1Cl	inconclusive: 68.6 µM [cytotoxic, single point]
COc1cc(C(=S)N2CCOCC2)cc(OC)c1OC	inactive
Nc1nc(F)nc2c1ncn2[C@@H]1O[C@H](CO)[C@@H](O)[C@@H]1O	active: 1.33 µM and active: 2.66 µM
C=C[Si](OC(C)=O)(OC(C)=O)OC(C)=O	inconclusive: 68.6 µM [cytotoxic, single point]
CCCCC(CC)COCCCN (stereo not given)	inconclusive: 67.8 µM [cytotoxic, single point]
CCCCCCCC(=O)Oc1c(Br)cc(C#N)cc1Br	inconclusive: 68.3 µM [cytotoxic, single point]
CC(CN(C)C)C(C)(O)Cc1ccc(Cl)cc1 (stereo not given)	inconclusive: 33.5 µM [cytotoxic, partial curve, poor fit]
CCCCCCCCCCCC(=O)OCC(C)OC(=O)CCCCC(=O)O (stereo not given)	inconclusive: 33.5 µM [cytotoxic, single point]
CC[C@H]1OC(=O)[C@H](C)[C@@H](O[C@H]2C[C@@](C)(OC)[C@@H](O)[C@H](C)O2)[C@H](C)[C@@H](O[C@@H]2O[C@H](C)C[C@H](N(C)C)[C@H]2O)[C@](C)(O)C[C@@H](C)/C(=N\OCOCCOC)[C@H](C)[C@@H](O)[C@]1(C)O	inconclusive: 14.3 µM [cytotoxic, partial curve, poor fit] and inactive and active: 14.3 µM
C=COCC1CCC(CO)CC1 (stereo not given)	inactive
CCCc1ccccc1O	inactive
CCC(CC)(CC(=O)Nc1cccc(/C=C/c2nc(C3CCC3)cs2)c1)C(=O)O	inconclusive: 33.5 µM [cytotoxic, single point]
O=C(O)c1cccc(C(=O)O)c1C(=O)O	inactive
